# Laboratory results: the supplement of paper PMC8728848
# The list shows a part of the results.
# B1: GNL (Galanthus nivalis) (protein)
# chain: MGHHHHHHHHYGTLENGHWLMVGMSIFSKDRTVELRMQDDGKLAIYYNDHCAWQSTAQQVNNAKGAVMQGDGNFCIYDKNGKATWHTNTAAPSGDSHTFVSVQDDGNLVLYKNNGATPIWSSKSNK
# Tests used:
# Assay in all cases: glycan array binding signal (z-score within array); higher = stronger binding
# Conditions in all cases: glycan notation: IUPAC condensed, linker removed
# [1] = target: Neu5Ac(a2-3)Gal(b1-4)GlcNAc(b1-2)[Neu5Ac(a2-3)Gal(b1-4)GlcNAc(b1-4)]Man(a1-3)[GlcNAc(b1-4)][Neu5Ac(a2-3)Gal(b1-4)GlcNAc(b1-4)Man(a1-6)]Man(b1-4)GlcNAc(b1-4)GlcNAc
# In short: (§1)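 The binding signal is a Z-score computed within each array. Data were drawn from 3228 arrays in the Consortium for Functional Glycomics database, restricted to those with a known protein sequence. Scores were averaged over arrays of the same protein sequence at different concentrations or buffers, and over linkers, and negative values can be taken as non-binding.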
# [2] = target: Neu5Ac(a2-3)Gal(b1-4)GlcNAc(b1-2)[Neu5Ac(a2-3)Gal(b1-4)GlcNAc(b1-6)]Man(a1-6)[Neu5Ac(a2-3)Gal(b1-4)GlcNAc(b1-2)Man(a1-3)]Man(b1-4)GlcNAc(b1-4)GlcNAc
# In short: as §1
# [3] = target: Neu5Ac(a2-3)Gal(b1-4)GlcNAc(b1-2)[Neu5Ac(a2-3)Gal(b1-4)GlcNAc(b1-6)]Man(a1-6)[Neu5Ac(a2-3)Gal(b1-4)GlcNAc(b1-2)Man(a1-3)][GlcNAc(b1-4)]Man(b1-4)GlcNAc(b1-4)GlcNAc
# In short: as §1
# [4] = target: Neu5Ac(a2-3)Gal(b1-4)GlcNAc(b1-3)Gal
# In short: as §1
# [5] = target: Neu5Ac(a2-3)Gal(b1-4)GlcNAc(b1-3)Gal(b1-3)GlcNAc
# In short: as §1
# [6] = target: Neu5Ac(a2-3)Gal(b1-4)GlcNAc(b1-3)Gal(b1-4)GlcNAc
# In short: as §1
# [7] = target: Neu5Ac(a2-3)Gal(b1-4)GlcNAc(b1-3)Gal(b1-4)GlcNAc(b1-2)Man(a1-3)[Neu5Ac(a2-3)Gal(b1-4)GlcNAc(b1-3)Gal(b1-4)GlcNAc(b1-2)Man(a1-6)]Man(b1-4)GlcNAc(b1-4)GlcNAc
# In short: as §1
# [8] = target: Neu5Ac(a2-3)Gal(b1-4)GlcNAc(b1-3)Gal(b1-4)GlcNAc(b1-3)Gal(b1-4)GlcNAc
# In short: as §1
# [9] = target: Neu5Ac(a2-3)Gal(b1-4)GlcNAc(b1-3)Gal(b1-4)GlcNAc(b1-3)Gal(b1-4)GlcNAc(b1-2)Man(a1-3)[Neu5Ac(a2-3)Gal(b1-4)GlcNAc(b1-3)Gal(b1-4)GlcNAc(b1-3)Gal(b1-4)GlcNAc(b1-2)Man(a1-6)]GalNAc
# In short: as §1
# [10] = target: Neu5Ac(a2-3)Gal(b1-4)GlcNAc(b1-3)Gal(b1-4)GlcNAc(b1-3)GalNAc
# In short: as §1
# [11] = target: Neu5Ac(a2-3)Gal(b1-4)GlcNAc(b1-3)Gal(b1-4)GlcNAc(b1-3)[Neu5Ac(a2-3)Gal(b1-4)GlcNAc(b1-3)Gal(b1-4)GlcNAc(b1-6)]GalNAc
# In short: as §1
# [12] = target: Neu5Ac(a2-3)Gal(b1-4)GlcNAc(b1-3)Gal(b1-4)GlcNAc(b1-6)[Gal(b1-3)]GalNAc
# In short: as §1
# [13] = target: Neu5Ac(a2-3)Gal(b1-4)GlcNAc(b1-3)Gal(b1-4)[Fuc(a1-3)]GlcNAc
# In short: as §1
# [14] = target: Neu5Ac(a2-3)Gal(b1-4)GlcNAc(b1-3)GalNAc
# In short: as §1
# [15] = target: Neu5Ac(a2-3)Gal(b1-4)GlcNAc(b1-3)[Neu5Ac(a2-3)Gal(b1-4)GlcNAc(b1-6)]GalNAc
# In short: as §1
# [16] = target: Neu5Ac(a2-3)Gal(b1-4)GlcNAc(b1-6)GalNAc
# In short: as §1
# [17] = target: Neu5Ac(a2-3)Gal(b1-4)GlcNAc(b1-6)[Gal(b1-3)]GalNAc
# In short: as §1
# [18] = target: Neu5Ac(a2-3)Gal(b1-4)GlcNAc(b1-6)[Neu5Ac(a2-3)Gal(b1-3)]GalNAc
# In short: as §1
# [19] = target: Neu5Ac(a2-3)Gal(b1-4)GlcNAc6S
# In short: as §1
# [20] = target: Neu5Ac(a2-3)Gal(b1-4)[Fuc(a1-3)]GlcNAc
# In short: as §1
# [21] = target: Neu5Ac(a2-3)Gal(b1-4)[Fuc(a1-3)]GlcNAc(b1-2)Man
# In short: as §1
# [22] = target: Neu5Ac(a2-3)Gal(b1-4)[Fuc(a1-3)]GlcNAc(b1-3)Gal
# In short: as §1
# [23] = target: Neu5Ac(a2-3)Gal(b1-4)[Fuc(a1-3)]GlcNAc(b1-3)Gal(b1-4)GlcNAc
# In short: as §1
# [24] = target: Neu5Ac(a2-3)Gal(b1-4)[Fuc(a1-3)]GlcNAc(b1-3)Gal(b1-4)[Fuc(a1-3)]GlcNAc(b1-3)Gal(b1-4)[Fuc(a1-3)]GlcNAc
# In short: as §1
# [25] = target: Neu5Ac(a2-3)Gal(b1-4)[Fuc(a1-3)]GlcNAc(b1-3)GalNAc
# In short: as §1
# [26] = target: Neu5Ac(a2-3)Gal(b1-4)[Fuc(a1-3)]GlcNAc(b1-6)[Gal(b1-3)]GalNAc
# In short: as §1
# [27] = target: Neu5Ac(a2-3)Gal(b1-4)[Fuc(a1-3)]GlcNAc(b1-6)[Neu5Ac(a2-3)Gal(b1-3)]GalNAc
# In short: as §1
# [28] = target: Neu5Ac(a2-3)Gal(b1-4)[Fuc(a1-3)]GlcNAc6S
# In short: as §1
# [29] = target: Neu5Ac(a2-3)Gal6S(b1-4)GlcNAc
# In short: as §1
# [30] = target: Neu5Ac(a2-3)Gal6S(b1-4)[Fuc(a1-3)]GlcNAc
# In short: as §1
# Neu5Ac(a2-3)GalNAc = target: Neu5Ac(a2-3)GalNAc
# In short: as §1
# [31] = target: Neu5Ac(a2-3)GalNAc(b1-4)GlcNAc
# In short: as §1
# [32] = target: Neu5Ac(a2-3)[GalNAc(b1-4)]Gal(b1-4)Glc
# In short: as §1
# [33] = target: Neu5Ac(a2-3)[GalNAc(b1-4)]Gal(b1-4)GlcNAc
# In short: as §1
# [34] = target: Neu5Ac(a2-3)[GalNAc(b1-4)]Gal(b1-4)GlcNAc(b1-3)GalNAc
# In short: as §1
# [35] = target: Neu5Ac(a2-3)[Neu5Ac(a2-6)]GalNAc
# In short: as §1
# Neu5Ac(a2-6)Gal = target: Neu5Ac(a2-6)Gal
# In short: as §1
# [36] = target: Neu5Ac(a2-6)Gal(b1-3)GlcNAc(b1-3)[Gal(b1-4)GlcNAc(b1-6)]Gal(b1-4)Glc
# In short: as §1
# Neu5Ac(a2-6)Gal(b1-4)Glc = target: Neu5Ac(a2-6)Gal(b1-4)Glc
# In short: as §1
# [37] = target: Neu5Ac(a2-6)Gal(b1-4)GlcNAc
# In short: as §1
# [38] = target: Neu5Ac(a2-6)Gal(b1-4)GlcNAc(b1-2)Man
# In short: as §1
# [39] = target: Neu5Ac(a2-6)Gal(b1-4)GlcNAc(b1-2)Man(a1-3)Man(b1-4)GlcNAc(b1-4)GlcNAc
# In short: as §1
# [40] = target: Neu5Ac(a2-6)Gal(b1-4)GlcNAc(b1-2)Man(a1-3)[Gal(b1-4)GlcNAc(b1-2)Man(a1-6)]Man(b1-4)GlcNAc(b1-4)GlcNAc
# In short: as §1
# [41] = target: Neu5Ac(a2-6)Gal(b1-4)GlcNAc(b1-2)Man(a1-3)[GlcNAc(b1-2)Man(a1-6)]Man(b1-4)GlcNAc(b1-4)GlcNAc
# In short: as §1
# [42] = target: Neu5Ac(a2-6)Gal(b1-4)GlcNAc(b1-2)Man(a1-3)[GlcNAc(b1-4)][Neu5Ac(a2-6)Gal(b1-4)GlcNAc(b1-2)Man(a1-6)]Man(b1-4)GlcNAc(b1-4)GlcNAc
# In short: as §1
binder,measurement,setting,value
B1,glycan array binding signal (z-score),[1],-0.226
same,glycan array binding signal (z-score),[2],-0.159
same,glycan array binding signal (z-score),[3],-0.238
same,glycan array binding signal (z-score),[4],-0.159
same,glycan array binding signal (z-score),[5],-0.29
same,glycan array binding signal (z-score),[6],-0.083
same,glycan array binding signal (z-score),[7],-0.147
same,glycan array binding signal (z-score),[8],-0.192
same,glycan array binding signal (z-score),[9],-0.087
same,glycan array binding signal (z-score),[10],-0.152
same,glycan array binding signal (z-score),[11],-0.245
same,glycan array binding signal (z-score),[12],-0.199
same,glycan array binding signal (z-score),[13],-0.181
same,glycan array binding signal (z-score),[14],-0.24
same,glycan array binding signal (z-score),[15],-0.202
same,glycan array binding signal (z-score),[16],-0.087
same,glycan array binding signal (z-score),[17],-0.195
same,glycan array binding signal (z-score),[18],-0.286
same,glycan array binding signal (z-score),[19],0.018
same,glycan array binding signal (z-score),[20],-0.283
same,glycan array binding signal (z-score),[21],-0.295
same,glycan array binding signal (z-score),[22],-0.288
same,glycan array binding signal (z-score),[23],-0.117
same,glycan array binding signal (z-score),[24],-0.213
same,glycan array binding signal (z-score),[25],-0.126
same,glycan array binding signal (z-score),[26],-0.252
same,glycan array binding signal (z-score),[27],-0.193
same,glycan array binding signal (z-score),[28],-0.243
same,glycan array binding signal (z-score),[29],-0.109
same,glycan array binding signal (z-score),[30],-0.324
same,glycan array binding signal (z-score),Neu5Ac(a2-3)GalNAc,-0.251
same,glycan array binding signal (z-score),[31],-0.177
same,glycan array binding signal (z-score),[32],-0.285
same,glycan array binding signal (z-score),[33],-0.244
same,glycan array binding signal (z-score),[34],-0.223
same,glycan array binding signal (z-score),[35],-0.187
same,glycan array binding signal (z-score),Neu5Ac(a2-6)Gal,-0.171
same,glycan array binding signal (z-score),[36],-0.193
same,glycan array binding signal (z-score),Neu5Ac(a2-6)Gal(b1-4)Glc,-0.189
same,glycan array binding signal (z-score),[37],-0.232
same,glycan array binding signal (z-score),[38],-0.239
same,glycan array binding signal (z-score),[39],0.107
same,glycan array binding signal (z-score),[40],0.864
same,glycan array binding signal (z-score),[41],1.6
same,glycan array binding signal (z-score),[42],-0.259
